Experimental data published in patent publication US8586634B2, “Therapeutic compounds” (University of Florida Research Foundation, Inc., priority 2007, dated 2013).

How the values were obtained:
[1] = biological target: T1, 5HT2B receptors (Homo sapiens, UniProt P41595); assay: Radioreceptor competition binding, [3H]-mesulergine, membranes of transfected CHO-K1 cells
[2] = biological target: T1, 5HT2B receptors; assay: PLC/[3H]-IP formation in transfected HEK cells (CHO cells in Example 10), agonism and antagonism of 5-HT; format: cell-based
[3] = biological target: 5-HT2A receptors (Homo sapiens, UniProt P28223); assay: PLC/[3H]-IP formation in transfected CHO cells (agonism and antagonism of 5-HT); format: cell-based; conditions: listed as PAT
[4] = test system: cocaine self-administration; conditions: rat; cited from earlier work

T1 sequence (P41595 whole entry): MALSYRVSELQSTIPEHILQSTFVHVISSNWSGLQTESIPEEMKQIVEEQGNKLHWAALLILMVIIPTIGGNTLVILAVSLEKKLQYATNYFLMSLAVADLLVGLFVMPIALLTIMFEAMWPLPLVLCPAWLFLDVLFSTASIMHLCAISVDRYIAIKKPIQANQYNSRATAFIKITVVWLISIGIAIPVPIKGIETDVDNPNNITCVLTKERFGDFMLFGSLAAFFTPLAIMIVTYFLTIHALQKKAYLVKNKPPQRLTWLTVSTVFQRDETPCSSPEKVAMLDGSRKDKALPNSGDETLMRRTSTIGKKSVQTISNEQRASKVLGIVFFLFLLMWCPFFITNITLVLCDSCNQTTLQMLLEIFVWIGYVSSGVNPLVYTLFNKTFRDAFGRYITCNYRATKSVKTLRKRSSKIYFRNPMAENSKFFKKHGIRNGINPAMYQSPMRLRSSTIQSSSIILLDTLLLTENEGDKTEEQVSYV
UniProt P28223, sequence (P28223 whole entry): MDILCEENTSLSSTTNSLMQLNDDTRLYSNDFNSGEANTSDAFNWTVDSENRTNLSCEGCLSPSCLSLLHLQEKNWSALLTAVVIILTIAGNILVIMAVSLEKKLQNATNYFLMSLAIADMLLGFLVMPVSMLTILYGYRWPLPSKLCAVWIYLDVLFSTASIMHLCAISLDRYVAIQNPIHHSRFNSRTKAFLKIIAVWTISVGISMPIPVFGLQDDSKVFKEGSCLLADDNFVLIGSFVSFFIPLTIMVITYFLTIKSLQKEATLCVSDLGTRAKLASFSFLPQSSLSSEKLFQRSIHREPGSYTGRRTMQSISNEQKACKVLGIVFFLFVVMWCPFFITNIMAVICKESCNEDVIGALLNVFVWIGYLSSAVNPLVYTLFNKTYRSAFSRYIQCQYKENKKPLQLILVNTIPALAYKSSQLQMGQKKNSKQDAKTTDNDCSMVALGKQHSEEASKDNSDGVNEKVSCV

Structure (SMILES)	5HT2B affinity lower than at 5HT2C receptors ([1]; Ki ratio 5HT2B vs 5HT2C) [fold]	Ki ([1]; read-out: 5HT2B affinity Ki, Example 9 1f) [nM]	blockade of 5HT-mediated stimulation of PLC/IP formation at 5HT2B ([2]; (−)-trans-PAT 1.0 μM)	blockade of 5HT-mediated stimulation of PLC/IP formation at 5HT2B ([2]; (−)-trans-PAT 10 μM vs 5HT 1.0 μM)	activation of PLC/IP formation at 5HT2B (agonism) ([2]; CHO cells, even at 10 μM)	functional activity at 5HT2B receptors ([2]; listed as PAT)	functional activity at 5HT2A receptors [3]	responding rate for cocaine self-administration [4]
CN(C)[C@@H]1Cc2ccccc2[C@@H](c2ccccc2)C1 (relative stereo) [PAT 1, (1R,3S)-(−)-Trans-1-phenyl-3-N,N-dimethylamino-1,2,3,4-tetrahydronaphthalene]	20	~1000	did not achieve full blockade	did not surmount the blockade	did not activate	antagonist	antagonist	
COc1cccc([C@H](O)C2CCN(CCc3ccc(F)cc3)CC2)c1OC [M100907]								does not alter
Cc1cc2c(cc1Cl)N(C(=O)Nc1ccc(Oc3cccnc3C)nc1)CC2 [SB242084]								increases
